This experiment has as its target GTPase KRas (Homo sapiens) (UniProt P01116). As to the kind of experiment: Covalent labelling of cysteine mutants by fragments, read by mass spectrometry (AID 2202238). Also noted: protein at 5 µM with 500 µM competing thiol for 1.5 h. The following applies: KRAS G12D cysteine mutants, disulfide tethering, MALDI-TOF labeling, stronger effect = higher value, fragment at 500 µM.

The mark [1] stands for this setting: measured here: G75C mutant labeling.
Where [2] appears, read: measured here: H94C mutant labeling.
Where [3] appears, read: measured here: I36C mutant labeling.
Where [4] appears, read: measured here: L120C mutant labeling.
Setting [5] is: measured here: M67C mutant labeling.
Where [6] appears, read: measured here: M72C mutant labeling.
The mark [7] stands for this setting: measured here: N86C mutant labeling.
Where [8] appears, read: measured here: P121C mutant labeling.
The mark [9] stands for this setting: measured here: S122C mutant labeling.
The mark [10] stands for this setting: measured here: S136C mutant labeling.
Setting [11] is: measured here: G60C mutant labeling.
Setting [12] is: measured here: N26C mutant labeling.

Structures are written as SMILES. The list shows a part of the results. Further columns of the screen follow, without active or inactive calls.

Sequence of UniProt P01116 (P01116 whole entry, looked up, the tested form may be a part): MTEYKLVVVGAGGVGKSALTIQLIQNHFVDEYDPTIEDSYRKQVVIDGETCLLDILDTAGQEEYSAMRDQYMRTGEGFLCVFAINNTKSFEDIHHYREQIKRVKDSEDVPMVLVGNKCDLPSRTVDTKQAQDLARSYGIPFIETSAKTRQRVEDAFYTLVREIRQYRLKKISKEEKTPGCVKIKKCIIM

As to `O=C(CCS)NCCc1cnc(SC2CCCC2)nc1`, the percent labeling reads like this: under setting [1], 16.1%; under setting [2], 43.2%; under setting [3], 35.9%; under setting [4], 23.8%; under setting [5], 34.9%; under setting [6], 36.1%. In addition, the percent labeling is, setting by setting: under setting [7], 27%; under setting [8], 31.4%; under setting [9], 23.1%; under setting [10], 48.6%.
For `O=C(CCS)NCc1cn2c(n1)CCCC2`, the percent labeling was 13.3% under setting [1]; 22.4% under setting [2]; 34.8% under setting [3]; 29.6% under setting [4]; 36.3% under setting [5]; 22.3% under setting [6]. Also, the percent labeling reads like this: under setting [7], 18%; under setting [8], 28%; under setting [9], 26.9%; under setting [10], 48%.
`CC(c1ccccc1)c1cc(C(=O)NCCS)n[nH]1` (stereo not drawn): the percent labeling under setting [11] was found to be 23.6%; the percent labeling under setting [1] came out at 17.6%; the percent labeling under setting [2] came out at 17.5%; the percent labeling under setting [3] was determined as 13.6%; the percent labeling under setting [4] was 27.5%; the percent labeling under setting [5] came out at 21.5%. For the same compound, the percent labeling reads like this: under setting [6], 59.3%; under setting [12], 28.1%; under setting [7], 16.2%; under setting [8], 15.5%; under setting [9], 13.1%; under setting [10], 31.5%.
Regarding `Cc1nc(C(=O)NCCS)nn1-c1n[nH]c(C(F)(F)F)n1`, the percent labeling is 22.2% under setting [11]; 12.3% under setting [1]; 27.1% under setting [2]; 17.3% under setting [3]; 55.9% under setting [4]; 20.6% under setting [5]. The percent labeling reads like this: under setting [6], 19.1%; under setting [12], 37.6%; under setting [7], 27.5%; under setting [8], 34.4%; under setting [9], 36.3%; under setting [10], 30.7%.
Turning to `O=C(CCS)Nc1cccc(NC(=O)c2ccc3c(c2)OCO3)c1`, the percent labeling by setting is: under setting [1], 3.8%; under setting [2], 6.3%; under setting [3], 12.6%; under setting [4], 4.3%; under setting [5], 5.9%; under setting [6], 21.2%. Besides, the percent labeling is, setting by setting: under setting [7], 0%; under setting [8], 2.4%; under setting [9], 3.3%; under setting [10], 12%.
The compound `O=C(CCS)NC1(c2noc(-c3cccnc3)n2)CCCCCC1` gave a percent labeling under setting [1] of 14.8%; a percent labeling under setting [2] of 39%; a percent labeling under setting [3] of 35.1%; a percent labeling under setting [4] of 28.7%; a percent labeling under setting [5] of 38.3%; a percent labeling under setting [6] of 32.5%. Also, the percent labeling by setting is: under setting [7], 24.5%; under setting [8], 34.3%; under setting [9], 28.6%; under setting [10], 56.7%.
`O=C(COc1cccc(N2CCCC2=O)c1)NCCS`: the percent labeling runs as follows: under setting [11], 33.7%; under setting [1], 22.1%; under setting [2], 33.6%; under setting [3], 25.4%; under setting [4], 44.5%; under setting [5], 32.8%. Moreover, the percent labeling runs as follows: under setting [6], 32.5%; under setting [12], 45.6%; under setting [7], 25.8%; under setting [8], 32.5%; under setting [9], 33.6%; under setting [10], 46.6%.
For `Cn1cc(-c2cccc(C(=O)NCCS)c2)cn1`, the percent labeling by setting is: under setting [11], 32.1%; under setting [1], 15.4%; under setting [2], 28.3%; under setting [3], 9.6%; under setting [4], 31.9%; under setting [5], 24.6%. Besides, the percent labeling is 58.8% under setting [6]; 55.9% under setting [12]; 24.1% under setting [7]; 18.3% under setting [8]; 18.8% under setting [9]; 39.3% under setting [10].
Turning to `O=C(NCCS)c1oc2ccccc2c1COc1ccccc1`, the percent labeling reads like this: under setting [11], 36.6%; under setting [1], 17.6%; under setting [2], 19.4%; under setting [3], 14.7%; under setting [4], 14.8%; under setting [5], 8.2%. For the same compound, the percent labeling is, setting by setting: under setting [6], 47.6%; under setting [12], 21.8%; under setting [7], 11.3%; under setting [8], 12.9%; under setting [9], 5.4%; under setting [10], 12.4%.
For `O=C(NCCS)c1cc2sc3ccccc3c2s1`, the percent labeling under setting [11] was determined as 23.6%; the percent labeling under setting [1] is 4.7%; the percent labeling under setting [2] amounted to 8.3%; the percent labeling under setting [3] worked out at 8.9%; the percent labeling under setting [4] came out at 14.2%; the percent labeling under setting [5] was found to be 7.5%. Also, the percent labeling is, setting by setting: under setting [6], 63.8%; under setting [12], 15.6%; under setting [7], 9%; under setting [8], 8.8%; under setting [9], 8.6%; under setting [10], 14.8%.
As for `COc1ccc2cc(C(=O)NCCS)n(C)c2c1`, the percent labeling was 10.4% under setting [11]; 13.6% under setting [1]; 9.2% under setting [2]; 6.6% under setting [3]; 8.7% under setting [4]; 6% under setting [5]. Besides, the percent labeling runs as follows: under setting [6], 45.3%; under setting [12], 37.9%; under setting [7], 7.5%; under setting [8], 8.6%; under setting [9], 8.6%; under setting [10], 14.9%.
`O=C(NCCS)c1cnn(-c2ncccc2Cl)c1C(F)(F)F`: the percent labeling by setting is: under setting [11], 60.6%; under setting [1], 27.9%; under setting [2], 32.9%; under setting [3], 22.2%; under setting [4], 23.6%; under setting [5], 25%. For the same compound, the percent labeling runs as follows: under setting [6], 47.2%; under setting [12], 27.3%; under setting [7], 31.6%; under setting [8], 21.3%; under setting [9], 22.5%; under setting [10], 43.6%.
Take `O=C1CC2(CCOC2)C(C(=O)NCCS)CN1` (stereo not drawn): the percent labeling under setting [11] was determined as 14.2%; the percent labeling under setting [1] amounted to 5.9%; the percent labeling under setting [2] was determined as 22.7%; the percent labeling under setting [3] was found to be 22.5%; the percent labeling under setting [4] was 24.6%; the percent labeling under setting [5] came out at 23.3%. Further, the percent labeling is, setting by setting: under setting [6], 6.9%; under setting [12], 27.2%; under setting [7], 26.1%; under setting [8], 27.4%; under setting [9], 25.6%; under setting [10], 31%.

Values taken from PubChem BioAssay AID2202238 (Ras Initiative Chemistry Research Team, Frederick National …, 2025).
